Reference: PubChem BioAssay AID1508642 (National Center for Advancing Translational Sciences (NCATS), 2021)
Among all 43,000 compounds or so, about 200 (0.47%) were called active. Inconclusive results (about 12%) are left out. Calls follow the shape of the dose curve; as a rule, active = well fitted cell-killing curve with a large enough effect; inconclusive = small, poorly fitted or top-dose-only effect, or effect the other way; inactive = flat fitted curve, though single readings scatter. The list shows a part of the results.

assay: Cell viability qHTS assay in S16 Pmp22-F2sN cells; settings: S16 Pmp22-F2sN Schwann cells (luciferase reporters placed in the Pmp22 gene) viability, CellTiter-Glo, 24 h; series mostly up to 57.5 µM; activity change, negative = cytotoxicity: at the top concentration; also: nearly all actives have a fitted effect of over 65% in size
How it was run: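 Seed 500-1,000 S16 Pmp22-F2sN cells per well in phenol-red-free DMEM with 10% heat-inactivated FBS; pin-add 23 nL compound; incubate 24 h at 37C; add CellTiter-Glo, wait 15 min protected from light; read luminescence.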
% is scaled to controls: 0 for no effect and ±100 for the full control effect.

| SMILES | activity change, negative = cytotoxicity |
| --- | --- |
| COc1cc(OC)cc(C(=O)Nc2ccc(S(=O)(=O)Nc3cc(C)nc(C)n3)cc2)c1 | inactive: 1.27% |
| CCn1cc(S(=O)(=O)c2ccccc2)c(=O)c2cc(C)ccc21 | inactive: -17.8% |
| CC(C)(CC(=O)OCC(=O)Nc1ccc(F)c(Cl)c1)CC1=NS(=O)(=O)c2ccccc2N1 | inactive: 12.2% |
| COc1cc(NC(=O)c2cc3c(=O)oc4ccc(C)cc4c3s2)cc(OC)c1OC | inactive: -0.22% |
| O=C(CSc1nccn1-c1ccc(Cl)cc1)Nc1nc2ccccc2s1 | inactive: -0.22% |
| COc1ccc(CCN2CC(C(=O)NCCc3ccc(C)cc3)CC2=O)cc1OC (stereo not drawn) | inactive: -1.82% |
| CCCCn1c(COc2cccc(OC)c2)nc2ccccc21 | inactive: 2.77% |
| Brc1ccc(-c2cc3c(N4CCN(c5ccccc5)CC4)nccn3n2)cc1 | inactive: -3.9% |
| Cc1ccccc1NC(=O)c1sc2nc(-c3ccncc3)ccc2c1N | inactive: -14.8% |
| Cc1nc(C)c(-c2ccc(SCC(=O)Nc3ccccc3F)nn2)s1 | inactive: 12.1% |
| COCCCNC(=O)CCCn1c(=O)c2cccn2c2cccnc21 | inactive: 3.44% |
| COc1cccc(CNC(=O)CCNS(=O)(=O)c2cccc3nsnc23)c1 | inactive: -1.77% |
| Cc1cc2ccccc2n1-c1ccc(C(=O)N2CCCCC2)s1 | inactive: -27.8% |
| CCOC(=O)c1ccc(N2C(=O)c3n[nH]c(-c4cccs4)c3C2c2ccc(C)cc2)cc1 (stereo not drawn) | inactive: 3.89% |
| CCCCOc1cccc(C(=O)Nc2cc3nn(-c4ccc(F)cc4)nc3cc2C)c1 | inactive: 5.83% |
| CCCN(CCC)CCCNC(=O)Cn1ncc2c3ccccc3n(Cc3ccc(F)cc3)c2c1=O | inactive: -1.11% |
| CCOC(=O)N1CCc2c(sc3c2c(=O)n(Cc2ccccc2)c(=O)n3Cc2c(F)cccc2Cl)C1 | inactive: 15.1% |
| CN(Cc1ccccc1)C(=O)c1cc2c(=O)n(C)c3ccccc3c2s1 | inactive: 0.752% |
| CSc1cccc(N2C(=O)N(Cc3ccc([N+](=O)[O-])cc3)c3ccccc3S2(=O)=O)c1 | inactive: 14.2% |
| CC(=O)Cn1nnc2sc(-c3ccccc3)cc2c1=O | inactive: -13.1% |
| COCCNC(=O)c1cc2n(n1)CCCN(Cc1ccc(C)cc1)C2=O | inactive: -29.4% |

| SMILES | activity change, negative = cytotoxicity |
| --- | --- |
| COc1ccc(CC(=O)Nc2c(C(=O)Nc3ccccc3F)oc3ccccc23)cc1 | inactive: 4.88% |
| COc1ccc(NC(=O)CC2C(=O)N(c3ccc(C)cc3)C(=O)N2CCc2ccccc2)cc1 (stereo not drawn) | inactive: 0.699% |
| COc1ccc(NC(=O)Cc2coc3cc(C)cc(C)c23)c(OC)c1 | inactive: 3.61% |
| COc1ccc2c(c1)c1c(c(=O)n(Cc3ccccc3)c(=O)n1Cc1cc(C)ccc1C)n2C | inactive: -0.436% |
| COc1cccc(OCc2nc3ccccc3n2CCOc2ccccc2)c1 | inactive: 2.38% |
| Cc1nn2c(=O)cc(COC(=O)c3ccccc3NC(=O)c3ccccc3C)nc2s1 | inactive: 3.3% |
| COc1ccc(-c2ccc(NS(=O)(=O)c3ccc(F)c(C(F)(F)F)c3)cc2)nn1 | inactive: -13.5% |
| COC(=O)c1c(NC(=O)CCCOc2ccc(C)cc2)sc2c1C(C(=O)OC)CC2 (stereo not drawn) | inactive: 20% |
| CCc1cccc(CC)c1NC(=O)c1cc(S(=O)(=O)N2CCc3ccccc32)cn1C | inactive: 7.5% |
| Cc1ccc(CN2CCCn3nc(C(=O)NCCN(C)C)cc3C2=O)cc1 | inactive: -3.82% |
| CCOC(=O)c1c(C)[nH]c(C)c1S(=O)(=O)N1CCC(C(=O)NCc2ccccc2)CC1 | inactive: -28.6% |
| Cc1ccc(C)c(OCCSc2nc3ccccc3n2CC(=O)N2CCOCC2)c1 | inactive: 19.9% |
| Cn1nc(-c2ccc(OCC(=O)Nc3ccccc3)cc2)c2ccccc2c1=O | inactive: -2.45% |
| Cc1ccc(S(=O)(=O)N2CCCC(c3nc4c(nnn4Cc4ccc(OC(F)(F)F)cc4)c(=O)[nH]3)C2)cc1 (stereo not drawn) | inactive: -13% |
| CCCCNc1nc(Oc2ccc(=O)n(-c3ccccc3)n2)nc(N(C)C)n1 | inactive: -5.16% |
| COc1ccc(-n2ncc(C(=O)N3CCN(c4ccccn4)CC3)c2C2CCN(C(=O)OC(C)(C)C)CC2)cc1 | inactive: 1.22% |
| COCCNc1nc(NCc2ccccc2OC)c2cnn(C)c2n1 | inactive: -3.08% |
| CCC(C)NC(=O)c1ccc2c(c1)N(Cc1cccc(Cl)c1)C(=O)c1ccccc1S2=O (stereo not drawn) | inactive: -9.39% |
| COCCNC(=O)c1c(NC(=O)Cc2coc3cc(C)ccc23)sc2c1CCCC2 | inactive: -0.325% |
| CCOC(=O)c1cn(CC(=O)Nc2cccc(Cl)c2C)nn1 | inactive: 7.83% |
| O=C(CN(c1cccc(Br)c1)S(=O)(=O)c1ccccc1)N1CCc2ccccc2C1 | inactive: -10.8% |

| SMILES | activity change, negative = cytotoxicity |
| --- | --- |
| COc1ccc(N2CCN(c3nc(-c4ccccc4F)nc4ccccc34)CC2)cc1 | inactive: -1.56% |
| CCOc1ccccc1NC(=O)C(NS(=O)(=O)c1cccc2nsnc12)c1ccccc1 (stereo not drawn) | inactive: 13.6% |
| Cc1nnc(N2CCN(c3ccccc3F)CC2)c2c1nnn2Cc1ccc(F)cc1 | inactive: 5.24% |
| CN(C(=O)c1nn(C)c2c1COc1ccccc1-2)c1cccc(C(F)(F)F)c1 | inactive: -8.41% |
| CCOC(=O)Cn1c(=O)cc(-c2ccccc2)c2c(C)nn(C)c21 | inactive: 14.2% |
| CCC(C)NC(=O)Cn1c(=O)n(-c2ccc(C)cc2)c(=O)c2ccccc21 (stereo not drawn) | inactive: 4.32% |
| Cc1nc(-c2ccccc2)sc1-c1ccc(SCC(=O)Nc2ccc(F)cc2F)nn1 | inactive: 15.4% |
| Cc1oc2ncnc(N3CCCCC3)c2c1C(=O)NCC1CCN(Cc2ccc(F)cc2)CC1 | inactive: -26.4% |
| CCc1ccccc1N(CC)C(=O)c1cc2c(s1)-c1ccccc1OC2 | inactive: 1.89% |
| CCc1ccc(-n2nc(CO)c(C(=O)NCc3ccccn3)n2)cc1 | inactive: -10.9% |
| Cc1ccccc1CSc1nc2nc(C)c(Cc3ccccc3)c(C)n2n1 | inactive: -9.66% |
| COc1ccc(OC)c(CCNC(=O)c2ccc(CS(=O)Cc3cccc(Cl)c3)o2)c1 (stereo not drawn) | inactive: -0.0385% |
| O=C(OCc1ccccc1Cl)c1ccc(-c2nnn(Cc3ccccc3)n2)cc1 | inactive: 17% |
| CC(C)Oc1ccc(CNC(=O)c2ccc(NC(=O)c3nsc4ccccc34)cc2)cc1 | inactive: -18.8% |
| O=C(Nc1ccc(NC(=O)c2cccs2)cc1)c1ccc(Br)cc1 | inactive: -1.65% |
| CC(C)(C)C(=O)Nc1ccc2nc(SCC(=O)N3CCCC3)sc2c1 | inactive: 11.2% |
| Cc1ccc(C)c(NC(=O)C(=O)NCCc2csc(-c3ccc(C(F)(F)F)cc3)n2)c1 | inactive: 2.54% |
| CCN(CCCNC(=O)c1cc2cc3cc(C)ccc3nc2s1)c1cccc(C)c1 | inactive: 12.5% |
| COc1ccc(/C=C(/C#N)c2nc(-c3ccc(-c4ccccc4)cc3)cs2)cc1 | inactive: 22.8% |
| CCN(C(=O)Cn1ncc2c1-c1cc(C)ccc1OC2)c1cc(Cl)ccc1OC | inactive: -2.69% |
| CCc1ccccc1NC(=O)CSc1ncc2c(n1)-c1ccccc1N(Cc1ccc(C)cc1)S2(=O)=O | inactive: -3.39% |
